Results from PubChem BioAssay AID624417 (National Center for Advancing Translational Sciences (NCATS), 2012).
About 6,400 (1.6%) of roughly 410,000 compounds were called active. Inconclusive means that the source gave no clear call. Such entries were picked first, then a sample of the others. The call rests on the fitted dose curve; in most records, active means well fitted inhibition curve with a large enough effect; inconclusive means small, poorly fitted or top-dose-only effect; inactive means no such curve, though single readings can be large or run the other way. No potency is given beside an inconclusive call; the fits are too rough.
Further: nearly all actives have a fitted effect of over 55% in size.
On the % scale 0 is the no-effect control and ±100 the full control effect; potency means the concentration at half of the fitted maximal effect; tags describe the fitted curve by direction and shape.

The compounds below were run against Glucagon-like peptide 1 receptor (Homo sapiens) (UniProt P43220) (assay: qHTS of GLP-1 Receptor Inverse Agonists (Inhibition Mode)). Conditions: HEK293 GLP-1R CRE-luciferase, luminescence, 24 h, GLP-1R form is constitutively active; activity change, negative = inhibition: at 38.3 µM (top of the series) unless noted.
Chain of UniProt P43220 (P43220 whole entry, looked up): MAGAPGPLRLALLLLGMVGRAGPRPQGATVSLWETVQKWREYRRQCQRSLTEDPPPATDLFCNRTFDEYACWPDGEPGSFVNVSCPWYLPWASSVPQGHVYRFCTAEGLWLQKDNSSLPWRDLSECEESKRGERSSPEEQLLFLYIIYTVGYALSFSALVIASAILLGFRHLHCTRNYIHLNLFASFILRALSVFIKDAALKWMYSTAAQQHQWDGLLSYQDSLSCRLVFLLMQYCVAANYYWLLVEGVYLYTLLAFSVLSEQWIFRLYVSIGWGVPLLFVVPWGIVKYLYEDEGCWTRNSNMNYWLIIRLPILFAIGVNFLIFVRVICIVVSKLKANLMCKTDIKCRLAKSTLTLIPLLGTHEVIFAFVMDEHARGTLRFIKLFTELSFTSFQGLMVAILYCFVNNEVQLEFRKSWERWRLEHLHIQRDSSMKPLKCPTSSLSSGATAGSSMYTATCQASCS
Method in brief: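 Using stably transfected HEK293 (constitutively active GLP-1R, cAMP-luciferase reporter), compounds were incubated 24 hr and luciferase measured by luminescence.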
In the case of COC(=O)c1c(NC(=O)CSc2nnnn2-c2ccc3c(c2)OCO3)sc(C)c1C, the Potency is reported as inconclusive [inhibitor, single point]. For C#CC(C)(C)NC(=O)c1cnc(-c2ccccc2)nc1-c1ccccc1, the Potency was inconclusive [inhibitor, single point]. For COc1ccccc1C(=O)Nc1ccnn1C1CCN(Cc2cc(C)c(C)cc2C)CC1, the Potency was inconclusive [inhibitor, partial curve, poor fit]. For Cc1cccc(Cn2c(=O)c3c(nc4n3CCN4Cc3ccco3)n(C)c2=O)c1, the Potency was inconclusive [inhibitor, single point]. In the case of O=C(NC1CCCCC1)c1ccc2c(c1)N(Cc1ccc(Cl)cc1)C(=O)c1ccccc1S2=O (stereo not drawn), the Potency is reported as inconclusive [inhibitor, partial curve, poor fit]. For CC1(C)Cc2ccccc2/C(=C/C(=O)N2CCCCCC2)N1, the Potency was inconclusive [inhibitor, single point]. In the case of CN(CCOc1ccc(Cl)cc1)C(=O)CNS(=O)(=O)c1ccc(N(C)C)c([N+](=O)[O-])c1, the Potency is reported as inconclusive [inhibitor, single point]. In the case of O=c1c2c3c(sc2nc2n1CCC2)CCCCC3, the “activity change, negative = inhibition” value is reported as inactive: 9.24%. For COc1ccccc1NS(=O)(=O)c1cccc(NC(=O)Nc2ccc(Cl)cc2)c1, the Potency was inconclusive [inhibitor, full curve, poor fit]. CCOc1ccccc1N(CC)C(=O)c1noc2c1COc1ccc(C)cc1-2 was tested, and the Potency was inconclusive [inhibitor, partial curve, poor fit]. With Cc1nn(Cc2ccc([N+](=O)[O-])cc2)c(=O)n1N(C)c1ncc(C(F)(F)F)cc1Cl the Potency was inconclusive [inhibitor, partial curve]. In the case of COc1cccc(-c2ccc(NC(=O)C3CCCN(Cc4cnn(C)c4C)C3)cc2)c1 (stereo not drawn), the Potency is reported as inconclusive [inhibitor, single point]. CC(C)Cc1cc(C(=O)N2CCN(c3ccc(F)cc3)CC2)no1 was tested, and the Potency was inconclusive [inhibitor, single point]. With CCN(C(=O)C1CCN(c2ncnc3c2nc2n3CCCCC2)CC1)c1cccc(Cl)c1 the Potency was inconclusive [inhibitor, single point]. CCC(NC(=O)CNC(=O)c1ccc2c(c1)OCO2)c1ccc(Br)cc1 (stereo not drawn) was tested, and the Potency was active: 12.6 µM. In the case of COc1ccc(/C=N/NC(=O)c2nc(Cl)c(Cl)c(N)c2Cl)cc1COc1ccccc1F, the Potency is reported as inconclusive [inhibitor, partial curve, poor fit]. In the case of O=C(N/N=C/c1c(O)ccc2ccccc12)c1ccc(Br)o1, the Potency is reported as inconclusive [inhibitor, partial curve, poor fit]. With O=C(NC1CCCCC1)N1CCc2ccccc21 the Potency was inconclusive [inhibitor, single point]. For COc1cccc(CNC(=O)Cn2cccc2C(=O)c2ccccc2C)c1, the Potency was inconclusive [inhibitor, single point]. Cc1ccc(NC(=O)C2CC(O)CN2C(=O)Oc2ccccc2)c(C)c1 (stereo not drawn) was tested, and the “activity change, negative = inhibition” value was inactive: 10.6%. In the case of Cc1ccc(C(=O)Cn2nnc3c(sc4nc5c(c(-c6ccccc6)c43)CCC5)c2=O)cc1, the Potency is reported as inconclusive [inhibitor, full curve, poor fit]. In the case of O=C(C1CCN(S(=O)(=O)c2cccc3cccnc23)CC1)N1CCN(c2ccc(Cl)cc2)CC1, the Potency is reported as inconclusive [inhibitor, partial curve, poor fit]. For Cc1nn(-c2ccccc2)c(Cl)c1C(=O)NCC(C)c1ccccc1 (stereo not drawn), the Potency was inconclusive [inhibitor, full curve, poor fit]. For CCCCn1c(-c2ccco2)n[nH]c1=S, the Potency was inconclusive [inhibitor, partial curve, poor fit]. CSc1ccc(CN2CCC2(C)C(=O)Nc2cccc(Oc3ccccc3)c2)cc1 (stereo not drawn) was tested, and the Potency was inconclusive [inhibitor, partial curve, poor fit]. O=C(Nc1cccc(-n2cnnn2)c1)c1ccc(OC(F)(F)F)cc1 was tested, and the Potency was inconclusive [inhibitor, single point]. For O=S(=O)(c1ccc(Br)cc1)N1CCCc2ccccc21, the Potency was inconclusive [inhibitor, single point]. In the case of Cc1occc1-c1nnc(SCC(=O)N2CCN(c3ccccc3)CC2)n1C, the Potency is reported as inconclusive [inhibitor, full curve]. COc1ccc(CN2C(=O)C(Cc3ccccc3)Nc3ncnc(N4CCN(c5ccccc5)CC4)c32)cc1 (stereo not drawn) was tested, and the Potency was inconclusive [inhibitor, single point]. CCCCOc1ccc(C(=O)NN2CCN(C)CC2)cc1 was tested, and the Potency was inconclusive [inhibitor, single point]. Cc1cc(C)cc(OCC(=O)Nc2ccc(CN3CCCCC3)cc2)c1 was tested, and the Potency was inconclusive [inhibitor, partial curve, poor fit]. For CCCCCCNC(=O)O[C@H]1Cn2c(=O)n(CCCCCC)c(=O)n2[C@@H]2CN(S(=O)(=O)c3ccc(C)cc3)C[C@]12O, the Potency was inconclusive [inhibitor, single point]. With Cc1ccc(-c2ccc(CN3C(C(C)C)C(=O)N(Cc4cn(CC5CCCCC5)nn4)CCS3(=O)=O)cc2)cc1 (stereo not drawn) the Potency was inconclusive [inhibitor, single point]. CCCN(CCC)C(=O)c1ccc2nc(-c3ccc(OC)c(OC)c3)c(-c3ccc(OC)c(OC)c3)nc2c1 was tested, and the Potency was inconclusive [inhibitor, single point]. In the case of COc1ccc(Cl)cc1NC(=O)NCC1CCN(Cc2ccccc2F)CC1, the Potency is reported as inconclusive [inhibitor, partial curve, poor fit]. For Cc1ccc(SC[C@H](Cc2ccccc2)N2CC[C@@H](C)CCC2=O)cc1, the Potency was active: 10 µM. In the case of CN(C)c1ccc(C(CNC(=O)c2c(F)cccc2Cl)N2CCOCC2)cc1 (stereo not drawn), the “activity change, negative = inhibition” value is reported as inactive: 7.65%. For Cc1ccc(Cl)cc1-c1cc(C(=O)NCc2ccc(C(F)(F)F)cc2)[nH]n1, the Potency was inconclusive [inhibitor, partial curve, poor fit].
